Hit rate of the full screen: of about 150,000 compounds, about 540 (0.36%) showed an effect of 50% or more. Some of the results follow.
Test system: Plasmodium falciparum
Experiment: Primary screen in NF54 nanoGlo assay, in single point, at 2uM, 72h; a lower Z score goes with more inhibition
Format: functional, Erythrocyte
Conditions: timepoint 72 hour

SMILES	% Inhibition	Z score
OC(CC1CCCN1c1ccnc(C2CC2)n1)c1ccc(F)cc1 (stereo not given)	-1%	0.12
Cc1cc(C)cc(OCC(=O)N(Cc2cccs2)c2ccccc2Cl)c1	17%	-2
COCCOc1ccc(-c2ncc(F)c(N(C)C)n2)cc1	-3%	0.4
COC(=O)C(C)(C)N(C(=O)Cc1csc(C)n1)C(C)C	-11%	0.91
CCc1cc(C(=O)NCCOC)sc1C	-7%	1.13
CCO[C@H]1COC[C@@H]1Nc1ncnc2[nH]ccc12	0%	0.08
COc1ncc(Cl)c(N(C)[C@H](CO)CC(C)C)n1	-17%	2.13
CCc1nc(CN(C)Cc2cnc(NS(=O)(=O)c3ccccc3)nc2)no1	1%	-0.13
Cc1n[nH]cc1CNCc1ccc(Cn2ccnc2)cc1	-12%	1.79
CS(=O)(=O)Cc1ccc(N2CC[C@@]3(CCCNC3=O)C2)nc1	1%	-0.08
COc1ccc2cc(C(=O)N3CC[C@H](Oc4cc(C(F)(F)F)ccn4)C3)[nH]c2c1	-8%	1.45
Cc1cc(C)c(-c2nc3ccc(-c4ccc5c(c4)OCO5)cc3o2)cc1C	-32%	2.8
CC1CN(CC(=O)NC2CCCCNC2=O)C(C)CO1 (stereo not given)	-16%	2.08
CC(NC(N)=O)C(=O)N1CCN(c2ccc(F)cc2F)CCC1C (stereo not given)	-5%	0.62
O=C1CCCN1[C@H]1CCCN(S(=O)(=O)CC2CCCCC2)CC1	-7%	1.12
CC(C)Cn1cc(C(=O)OCC2CCC(C)O2)cn1 (stereo not given)	-11%	1.26
c1cc(-c2csc(C3CCOCC3)n2)ccn1	11%	-2.02
O=C(O)CC1(NC(=O)[C@H]2CC23CCCC3)CCC1	-9%	1.07
CCc1cc2c(N3CC(C)(C)C3(C)C)ncnc2s1	-2%	0.21
COC(=O)C1CCC(S(=O)(=O)c2ccccc2)N1C(=O)OC(C)(C)C (stereo not given)	-11%	1.58
CC(=O)N1c2ccccc2[C@@H](C)CC12CCCCC2	-7%	1.25
COc1ccnc(C(=O)N(Cc2cnn(C)c2)C(C)C)c1	-10%	1.37
Cc1ccccc1C(=O)Nc1ccc2c(c1)C(=O)N(C)c1ccccc1O2	-5%	0.54
C[C@H]1CN(Cc2ccc(C#N)cc2)CCN1C(=O)c1ccc(S(=O)(=O)NC2CC2)cc1	-6%	0.76
CCc1[nH]c2ccc(CNc3nccc(N4CCC[C@H](O)C4)n3)cc2c1C	6%	-0.83
COCc1noc(C2CCCCCC2)n1	-16%	1.66
COCC1(C(=O)NCC[C@H]2CCOC2)CCC1	-16%	2.07
CCOC(=O)c1nn(CCc2ccccc2)c2c1CN(C(=O)c1n[nH]c3ccccc13)CC2	0%	-0.05

SMILES	% Inhibition	Z score
O=C(Nc1cccc(S(=O)(=O)N2CCOCC2)c1)C1CCN(C(=O)c2ccco2)CC1	13%	-1.57
O=C(C[C@@H]1C=CCC1)NCc1cccnc1-n1ccnc1	-9%	1.28
Cc1coc(C)c1C(=O)C[C@@]1(O)C(=O)N(Cc2ccccc2Cl)c2ccccc21	32%	-3.68
CC(C)(C)OC(=O)NC1CCCC(Nc2cnccn2)C1 (stereo not given)	-2%	0.22
N#Cc1ncnnc1-c1ccc(F)cc1	0%	0.02
Cn1cc(C2CCCN2CC(O)COCc2cccs2)cn1 (stereo not given)	-9%	1.18
CCC(=O)N1CCC[C@H]1C(=O)N1CCc2[nH]c(-c3ccc(OC)nc3)nc2C1	-9%	0.86
C[C@@H]1CN(Cc2ccc3c(c2)CN(Cc2ccc(Oc4ncccn4)cc2)CCO3)C[C@H](C)O1	-5%	0.91
Cc1ccc2c(=O)c(-c3nc(-c4ccccc4C)no3)cn(CC(=O)NCc3ccccc3Cl)c2n1	-28%	2.43
CC(C)C[C@H](C)N(C)CCC(=O)Nc1ccccc1C#N	-8%	1.47
O=C1c2ccccc2CN1C1CCCCCC1CO (stereo not given)	-11%	1.12
Cc1nc(NC(=O)CCC(=O)c2ccccc2)n(C)n1	-6%	1.13
Cc1cc(C#N)ccc1S(=O)(=O)OCC(F)(F)F	9%	-0.98
CC(C)c1ccc(-c2nc(N3CCN(Cc4ccccc4)CC3)nc3nn(C)c(N)c23)cc1	-6%	0.66
Cc1cnc(C(=O)N2CC3C(C2)C3(C)C)cn1 (stereo not given)	-11%	1.09
Cc1cnn(CCCNC(=O)C[C@H]2COCCN2Cc2ccc(C)o2)c1	-20%	2.24
C[C@H](C#N)CNC(=O)NCCOc1cccc(Br)c1	-4%	0.4
Cc1cc(=O)c2cccc(C(=O)N[C@@H]3[C@@H]4CCO[C@@H]4[C@H]3N(C)C)c2[nH]1	-9%	1.87
CNC(=O)OC[C@H]1CCCCN1C(=O)c1[nH]nc2c1CCCC2	1%	-0.08
CCNC(=O)N1CCN([C@H](C(=O)N2CCc3ccccc3C2)C2CCCC2)CC1	-6%	0.95
O=C1O[C@H](C(=O)NC2(c3nccs3)CCCC2)Cc2ccccc21	-10%	1.06
CC1(C)CCN(C(=O)c2cccnc2C(N)=O)C[C@@H]1c1ccccc1	-7%	1.39
O=C(C(=O)N1CCN(Cc2ccc3c(c2)OCO3)CC1)N1CCCCC1	-7%	0.89
CCCn1c(C)nnc1CN[C@@H](C)c1cc(C)sc1C	-4%	0.49
Cc1cc(=O)[nH]c(CCNC2CCN(c3ccc(-c4cccc(F)c4)cc3)CC2)n1	-14%	1.29
COC[C@H]1C[C@@H](NC(=O)c2ccccc2)[C@H](O)[C@@H]1O	15%	-1.7
CCN1C(=O)[C@H]2[C@@H](C1=O)[C@@](CO)(C(=O)OC)N[C@H]2c1ccc(F)cc1OC	-8%	1.32

— ChEMBL document CHEMBL4888484, “Replenishing the malaria drug discovery pipeline: Screening and hit evaluation of the MMV Hit Generation Library 1 (HGL1) against asexual blood stage Plasmodium falciparum ,using a nano luciferase reporter read-out” (2022)
